The values that follow come from PMC8427838.

Sequences of proteins named here, by UniProt entry; tags and fusion partners are left off. A change or cut given only in a name is not applied to a line headed by its entry. A line that says so, or that is headed by a name, gives the form on record, which may keep a tag or linker. Residues count along the entry.
UniProt P26038: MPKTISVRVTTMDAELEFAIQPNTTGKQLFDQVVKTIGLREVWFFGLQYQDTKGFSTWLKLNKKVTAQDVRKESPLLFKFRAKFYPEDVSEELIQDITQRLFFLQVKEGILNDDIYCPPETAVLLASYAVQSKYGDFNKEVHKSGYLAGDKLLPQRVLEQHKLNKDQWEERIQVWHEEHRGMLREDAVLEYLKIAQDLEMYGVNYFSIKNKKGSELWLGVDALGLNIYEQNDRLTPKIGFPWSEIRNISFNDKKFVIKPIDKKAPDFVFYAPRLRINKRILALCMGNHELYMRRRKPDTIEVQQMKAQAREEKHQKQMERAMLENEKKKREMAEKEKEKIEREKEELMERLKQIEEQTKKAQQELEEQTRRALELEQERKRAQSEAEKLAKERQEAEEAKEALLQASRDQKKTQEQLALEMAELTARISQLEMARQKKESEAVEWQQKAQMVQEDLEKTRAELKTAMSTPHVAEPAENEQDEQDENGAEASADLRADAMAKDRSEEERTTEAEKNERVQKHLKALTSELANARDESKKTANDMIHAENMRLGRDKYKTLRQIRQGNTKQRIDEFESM
GST-FERM-moesin (N-terminal FERM domain of moesin fused to GST): residues 2-295 of P26038
UniProt P15311: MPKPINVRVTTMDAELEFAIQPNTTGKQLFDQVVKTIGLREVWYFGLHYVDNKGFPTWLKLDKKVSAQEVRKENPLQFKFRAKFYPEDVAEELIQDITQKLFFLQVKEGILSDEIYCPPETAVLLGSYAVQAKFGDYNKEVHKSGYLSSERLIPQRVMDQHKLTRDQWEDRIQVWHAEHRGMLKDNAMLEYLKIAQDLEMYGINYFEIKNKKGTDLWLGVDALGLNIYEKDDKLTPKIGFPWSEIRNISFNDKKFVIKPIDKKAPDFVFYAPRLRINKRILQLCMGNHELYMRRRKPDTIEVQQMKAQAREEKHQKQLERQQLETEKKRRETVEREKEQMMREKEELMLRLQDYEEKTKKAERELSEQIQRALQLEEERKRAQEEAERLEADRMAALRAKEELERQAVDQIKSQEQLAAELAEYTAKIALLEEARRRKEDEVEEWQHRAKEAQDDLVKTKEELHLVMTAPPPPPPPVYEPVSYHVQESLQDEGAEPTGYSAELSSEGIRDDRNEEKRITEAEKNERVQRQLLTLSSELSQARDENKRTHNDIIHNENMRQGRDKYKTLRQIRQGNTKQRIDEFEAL

The target of experiment [1] is T1, GST-4A-TMIGD1 (GST fusion of the TMIGD1 cytoplasmic domain with R242, R243, K244, K245 mutated to alanine) (human) (UniProt Q6UXZ0).
T1 sequence: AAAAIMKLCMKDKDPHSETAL
The experiment can be described thus: pull-down; immobilised GST fusion proteins incubated with normalized whole-cell lysates of HEK-293 cells, rocking 3 h at 4 °C; western blot (anti-GFP or anti-Myc); only the target purified.

Experiment [2] has as its target T2, GST-TMIGD1 (GST fusion of the cytoplasmic domain of human TMIGD1) (human) (UniProt Q6UXZ0).
T2 sequence: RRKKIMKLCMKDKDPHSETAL
Described as above.

In experiment [3] the target is T3, TMIGD1 expressed in 786-0 cells (human) (UniProt Q6UXZ0).
T3 sequence: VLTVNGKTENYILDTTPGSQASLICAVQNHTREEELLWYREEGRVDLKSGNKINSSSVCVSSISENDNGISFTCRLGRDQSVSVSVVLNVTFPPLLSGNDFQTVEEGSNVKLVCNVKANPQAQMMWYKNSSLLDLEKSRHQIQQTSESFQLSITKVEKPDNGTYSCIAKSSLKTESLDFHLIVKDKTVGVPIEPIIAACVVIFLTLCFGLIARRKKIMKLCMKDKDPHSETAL
The experiment can be described thus: co-IP; whole cell lysates of 786-0 cells expressing EV or TMIGD1 immunoprecipitated with anti-TMIGD1 antibody; western blot with anti-moesin antibody. For orientation: Immunoblotting shows a protein as a band on a membrane.

In experiment [4] the target is GST-FERM-moesin (N-terminal FERM domain of moesin fused to GST) (human) (UniProt P26038). The experiment can be described thus: pull-down; immobilised GST fusion proteins incubated with normalized whole-cell lysates of HEK-293 cells, rocking 3 h at 4 °C; western blot (anti-GFP or anti-Myc); only the target purified.

Results are given in words; binding and its absence hold for the method and conditions named. In cells and extracts the contact can be indirect. Some results given as binding are weak or reduced against the parent protein; the word gives no strength. For part of these data: Where a sequence is shown, tags or fusion partners need not be part of it.

As to ezrin-GFP (from UniProt P15311 1-586), the binding result in experiment [1] is recorded as “no binding”; in experiment [2], “binds”.
With “moesin (endogenous, 786-0 renal carcinoma cells) (from UniProt P26038 1-577)”, the binding entry in experiment [3] was “binds”.
As for moesin-GFP (from UniProt P26038 1-577), the values for the binding result in experiment [1] and in experiment [2] were “no binding” and “binds”, respectively.

B1: TMIGD1-Myc (protein, UniProt Q6UXZ0 30-262)
chain: T3 sequence
On to B1, for which, in experiment [4], the binding result is listed as “binds”.
